SMILES strings stand for the structures. Hit rate of the full screen: of about 310,000 compounds, about 14,000 (4.5%) showed an effect of 50% or more. The effect is printed as a negative number. This is one part of the list.
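Also: peak tail current of the secondary pulse compared with the same well before compound.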

The target in this experiment is human ether-à-go-go-related gene (hERG) potassium channel (human, UniProt Q12809). Kind of experiment: primary screen, population patch clamp on CHO cells stably expressing hERG.
Sequence of human ether-à-go-go-related gene (hERG) potassium channel (Q12809 whole entry, looked up): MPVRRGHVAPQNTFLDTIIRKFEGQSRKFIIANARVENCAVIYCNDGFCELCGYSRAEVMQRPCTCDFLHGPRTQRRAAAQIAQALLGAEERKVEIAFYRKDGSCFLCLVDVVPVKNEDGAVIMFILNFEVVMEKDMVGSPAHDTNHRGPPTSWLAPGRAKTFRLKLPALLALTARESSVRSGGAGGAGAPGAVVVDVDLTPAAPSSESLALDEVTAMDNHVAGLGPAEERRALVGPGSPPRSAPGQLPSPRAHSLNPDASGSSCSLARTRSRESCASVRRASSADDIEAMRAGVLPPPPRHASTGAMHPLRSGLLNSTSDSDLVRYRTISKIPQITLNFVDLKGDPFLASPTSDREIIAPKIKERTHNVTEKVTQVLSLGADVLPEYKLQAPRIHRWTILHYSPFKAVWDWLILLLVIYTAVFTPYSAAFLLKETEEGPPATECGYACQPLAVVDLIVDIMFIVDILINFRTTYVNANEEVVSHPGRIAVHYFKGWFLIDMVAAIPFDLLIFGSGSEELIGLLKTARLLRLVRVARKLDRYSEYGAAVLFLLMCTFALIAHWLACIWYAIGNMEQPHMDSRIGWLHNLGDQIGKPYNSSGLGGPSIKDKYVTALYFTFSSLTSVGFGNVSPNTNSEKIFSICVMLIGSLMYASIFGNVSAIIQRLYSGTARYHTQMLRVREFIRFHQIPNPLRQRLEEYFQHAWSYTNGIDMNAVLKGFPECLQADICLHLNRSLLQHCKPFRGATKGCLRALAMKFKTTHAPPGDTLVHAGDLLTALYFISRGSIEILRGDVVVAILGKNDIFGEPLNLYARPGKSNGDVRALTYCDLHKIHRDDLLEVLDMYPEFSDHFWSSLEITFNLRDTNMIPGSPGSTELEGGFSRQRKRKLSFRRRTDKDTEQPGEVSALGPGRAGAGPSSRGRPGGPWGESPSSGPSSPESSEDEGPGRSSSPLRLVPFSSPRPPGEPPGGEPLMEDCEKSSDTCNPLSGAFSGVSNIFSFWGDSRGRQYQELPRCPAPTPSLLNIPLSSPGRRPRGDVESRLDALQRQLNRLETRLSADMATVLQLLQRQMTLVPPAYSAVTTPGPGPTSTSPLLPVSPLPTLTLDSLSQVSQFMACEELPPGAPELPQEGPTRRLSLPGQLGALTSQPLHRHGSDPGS
With `Cc1ccc2cc(NC(=O)c3ccc(C(C)(C)C)cc3)ccc2n1`, the “hERG current change (%, negative = inhibition) at 10uM” value is -0.476%.

`O=C(CCNS(=O)(=O)c1ccccc1F)NCc1ccc2c(c1)OCO2`: the “hERG current change (%, negative = inhibition) at 10uM” value is 4.75%. For `c1ccc(Cc2nnc3sc(-c4ccccn4)nn23)cc1`, the “hERG current change (%, negative = inhibition) at 10uM” value is given as -6.6%. Turning to `O=C(NC(=S)NCC1CCCO1)c1ccccc1[N+](=O)[O-]` (stereo not shown), the “hERG current change (%, negative = inhibition) at 10uM” value worked out at 12.5%. As for `COc1ccc(C(=O)CN(C(=O)c2ccc(Cl)cc2)N2C(=O)c3ccccc3C2=O)cc1`, the “hERG current change (%, negative = inhibition) at 10uM” value is -1.94%. Consider `COc1ccc(CCNc2c([N+](=O)[O-])ncn2C)cc1OC`, for which the “hERG current change (%, negative = inhibition) at 10uM” value stood at 15.2%. On to `CCOC(=O)Cc1csc(SCC(=O)c2c(N)n(CC(C)C)c(=O)n(C)c2=O)n1`, for which the “hERG current change (%, negative = inhibition) at 10uM” value is -2.23%.

In the case of `Cc1ccc(S(=O)(=O)NNC(=O)CCC(=O)Nc2ccc(C)cc2C)cc1`, the “hERG current change (%, negative = inhibition) at 10uM” value is 5.5%. Turning to `Cc1cccn2c(CNCCc3ccccn3)c(C(=O)N3CCOCC3)nc12`, the “hERG current change (%, negative = inhibition) at 10uM” value is -2.02%. Consider `COc1ccc(C(=O)NNC(=O)CN(C)S(=O)(=O)c2ccc(Cl)cc2)c(OC)c1OC`, for which the “hERG current change (%, negative = inhibition) at 10uM” value is recorded as -49.7%. On to `COC(=O)c1c(C)cc(O)c(C)c1O`, for which the “hERG current change (%, negative = inhibition) at 10uM” value is listed as 12.4%.

Consider `CC(=O)Nc1cccc(N2C(=O)CC(Cc3ccccc3)C2=O)c1` (stereo not shown), for which the “hERG current change (%, negative = inhibition) at 10uM” value is on record as -11.4%.

For the compound `CC1CN(CCc2ccccc2)CC(C)O1` (stereo not shown), the “hERG current change (%, negative = inhibition) at 10uM” value turned out to be 11.1%. Regarding `COc1ccc(S(=O)(=O)N2CCC(C(=O)N[C@H](C(=O)NC3CCCC3)C(C)C)CC2)cc1`, the “hERG current change (%, negative = inhibition) at 10uM” value was 14.5%.

As to `CCCn1c(SCC(=O)c2c(N)n(C3CC3)c(=O)[nH]c2=O)nc2cc(S(N)(=O)=O)ccc21`, the “hERG current change (%, negative = inhibition) at 10uM” value is on record as -2.63%. In the case of `CCCC(=O)Nc1nnc(/C=C/c2ccc(OC)cc2)s1` it was 12.4%; in that of `COC(=O)c1oc2ccccc2c1NC(=O)/C=C/C(=O)O`, 9.76%; in that of `O=C(Nc1ccccc1F)C(=O)c1cn(CC(=O)N2CCCCC2)c2ccccc12`, 13.8%.

`C=C(C)CSc1nc2sc3c(c2c(=O)n1C1CCCCC1)CCN(C)C3`: the “hERG current change (%, negative = inhibition) at 10uM” value is -41.4%. The value for `N#Cc1nc(COc2ccc(-c3ccccc3)cc2)oc1NCc1cccnc1` was -19.3%; that for `Cc1ccccc1-n1nnnc1SCC(C)C` was 6.93%.

Turning to `Cc1nn(-c2ccc(F)cc2)c(C)c1NS(=O)(=O)c1ccc(Cl)cc1`, the “hERG current change (%, negative = inhibition) at 10uM” value is recorded as -12.1%. Regarding `COc1cccc(-n2c(CN3CCN(c4cccc(C)c4)C(C)C3)nc3ccc([N+](=O)[O-])cc3c2=O)c1` (stereo not shown), the “hERG current change (%, negative = inhibition) at 10uM” value is reported as -4.37%. In the case of `NS(=O)(=O)c1ccc(CCNC(=O)CSc2ncnc3ccccc23)cc1`, the “hERG current change (%, negative = inhibition) at 10uM” value was determined as 19%. Regarding `CCOC(=O)c1sc(NC(=O)CSc2nccc(C)n2)nc1C`, the “hERG current change (%, negative = inhibition) at 10uM” value is given as -5.59%.

Turning to `CCCCN(C(=O)C1CCC1)c1c(N)n(Cc2ccccc2)c(=O)[nH]c1=O`, the “hERG current change (%, negative = inhibition) at 10uM” value is given as -0.98%. The value for `CCOC(=O)NC(NCc1cccc(C(F)(F)F)c1)(C(F)(F)F)C(F)(F)F` was -1.81%; that for `Cc1cc(Sc2ncnc(N)c2[N+](=O)[O-])ncn1` was 12.7%; that for `Cc1ccc(CSCC(=O)NN=C2CCN(C)CC2)cc1` was 2.08%. Take `CCOc1ccccc1Nc1nnc(SCc2nnc(-c3cc(OC)c(OC)c(OC)c3)o2)s1`: the “hERG current change (%, negative = inhibition) at 10uM” value is recorded as -10.3%. The value for `COC(=O)CN(C(=S)Nc1ccc(F)cc1)C1CC(=O)N(c2ccccc2)C1=O` (stereo not shown) was -2.41%; that for `Cc1cccc(N2C(=O)CC(SC(=Nc3ccccc3)Nc3ccccc3)C2=O)c1` (stereo not shown) was -2.5%.

`Cc1onc(-c2c(F)cccc2Cl)c1C(=O)NCc1ccccc1`: the “hERG current change (%, negative = inhibition) at 10uM” value was -7.14%. For `O=C(c1ccc(=O)[nH]n1)N1CCc2ccccc2C1`, the “hERG current change (%, negative = inhibition) at 10uM” value worked out at 5.67%. In the case of `Clc1nssc1=Nc1nncs1` it was 21.7%; in that of `CCCNC(=O)C(Cc1ccccc1)NS(=O)(=O)c1ccc2c(c1)CCC(=O)N2` (stereo not shown), 6.92%; in that of `COc1ccc(CCNC(=O)/C=C/c2ccc(OC)c(S(=O)(=O)N3CCOCC3)c2)cc1`, -20.3%. Turning to `C/C(=N\OC(=O)c1ccc(F)cc1)c1sc(-c2ccc(Cl)cc2)nc1C`, the “hERG current change (%, negative = inhibition) at 10uM” value worked out at 16.3%. In the case of `Cc1ccc(S(=O)(=O)N2CCN(CC(O)c3ccccc3)CC2)cc1` (stereo not shown) it was 9.49%; in that of `Cc1occc1-c1nnc(SCC(=O)N(C)CCC#N)n1N`, 4.44%; in that of `CCNC(=S)Nc1ccc(Cc2ccncc2)cc1`, -4.01%.

Turning to `Cc1cc(C)cc(OCC(=O)Nc2cccc(C(=O)O)c2)c1`, the “hERG current change (%, negative = inhibition) at 10uM” value came out at 18.5%. For the compound `COc1ccccc1CNC(=O)CCC(=O)N1CCOc2ccc(C)cc21`, the “hERG current change (%, negative = inhibition) at 10uM” value is reported as -17.9%. On to `O=C(CCN1C(=O)C2C3C=CC(C3)C2C1=O)N1CCN(c2ccc(F)cc2)CC1` (stereo not shown), for which the “hERG current change (%, negative = inhibition) at 10uM” value was -25.8%. For `CCOC(=O)CSc1nnc(-c2ccc(NS(=O)(=O)c3ccc(C)cc3)cc2)o1`, the “hERG current change (%, negative = inhibition) at 10uM” value was -14.9%. As to `COc1ccc(C2CC(c3cccs3)=NN2C(=O)COC(=O)c2cncc(Br)c2)cc1OC` (stereo not shown), the “hERG current change (%, negative = inhibition) at 10uM” value is listed as -4.65%.

In the case of `CCC(C)[C@H](NC(=O)OC(C)(C)C)C(=O)NCC1CCC(C(=O)N[C@@H](Cc2ccccc2)C(=O)O)CC1` (stereo partly shown), the “hERG current change (%, negative = inhibition) at 10uM” value was determined as 19.8%.

`COc1ccc(NC(=O)c2cc(S(=O)(=O)NCC3COc4ccccc4O3)ccc2F)cc1` (stereo not shown): the “hERG current change (%, negative = inhibition) at 10uM” value is recorded as -19.1%. With `CSc1ccc(C(=O)C2CCCN(C(=O)c3csc(C(C)=O)c3)C2)cc1` (stereo not shown), the “hERG current change (%, negative = inhibition) at 10uM” value is listed as -10.4%. Take `O=C(Cn1ncn2cccc2c1=O)N1CCCCC1`: the “hERG current change (%, negative = inhibition) at 10uM” value is listed as 13.4%. In the case of `O=C(NCc1cccc2ccccc12)Nc1ccccc1` it was 14.4%; in that of `C=CCc1cc(C)ccc1OCCOCCN1CCN(C)CC1.O=C(O)C(=O)O`, -10.7%; in that of `O=C(c1cc([N+](=O)[O-])cc([N+](=O)[O-])c1)N1CCCc2ccccc21`, -16.3%. As for `CCOC(=O)C1CCCN(C(=O)Nc2c(-c3ccccc3)noc2C)C1` (stereo not shown), the “hERG current change (%, negative = inhibition) at 10uM” value is listed as 6.03%. Consider `Cc1ccc2c(c1)c(C)c(C)n2CC(O)Cn1nc(C)cc1C` (stereo not shown), for which the “hERG current change (%, negative = inhibition) at 10uM” value amounted to 1.9%.

Source of the values: publication PMC4336329 (PLoS ONE, 2015).
